# From PMC10668032
# This is one part of the list. At the low end of the ranking the order means little.
# Target: SIX1-Q177R homeodomain (UniProt Q15475)
# Assay: universal protein binding microarray
# Conditions: Universal all-10-mer PBM (8x60K, AMADID 030236), 300 nM GST-tagged protein, Alexa Fluor 488 anti-GST; buffer, salt, pH and temperature not stated; high values mean tight binding; most listed sequences are background and not binding sites; double strand, one strand shown
row,Sequence,binding signal [E-score]
1,AGATCAGG,0.0734
2,TCAACTGA,-0.0594
3,ACAGTAGG,-0.0405
4,CTGTGCTC,-0.0693
5,ACATCTAA,-0.126
6,AGACCAAT,-0.214
7,CTACGCGA,-0.00166
8,AGGTTCCC,-0.199
9,CTAAGTCA,-0.212
10,GCTCGACC,-0.0628
11,AACTATTA,-0.33
12,GACTGAAC,-0.0536
13,CGCGCAGA,0.00481
14,AAAGGTAC,-0.0261
15,GGGCGAAC,-0.0435
16,GCATAAGC,-0.106
17,ATTTTCGC,-0.161
18,ATAACGCG,0.0979
19,CAATCTAG,-0.00233
20,AGCACAAC,-0.00405
21,TCATTTCA,-0.0579
22,GCTTCGAA,-0.108
23,CCGATAGG,0.0353
24,GGTCGAAA,-0.05
25,AGGCTTAA,-0.144

row,Sequence,binding signal [E-score]
1,CTGATGAA,-0.138
2,CAATCCCA,-0.163
3,ATGGTCCC,-0.252
4,CAATTCAG,-0.154
5,AGCATGCA,-0.0221
6,TCCAGCGA,-0.118
7,GGACATAA,-0.07
8,AAAATTTT,-0.159
9,ACAAAAAG,-0.171
10,CTTGACGA,-0.172
11,AGCGTCAG,-0.0163
12,ACTTGTGC,-0.18
13,CCATCTAG,-0.0296
14,CAAGCCTC,-0.145
15,AAGCACTA,0.102
16,CAGTATGA,-0.0767
17,CCCAGGGA,0.0355
18,AGTCAGTC,-0.216
19,ACTAAAAT,-0.304
20,GCAGTCGA,-0.136
21,CCATCCCC,-0.00104
22,GCTAGGCC,-0.185
23,CACGCGTG,0.317
24,AAGTTCAT,-0.232
25,GGCCCGGA,-0.043

row,Sequence,binding signal [E-score]
1,ATTGTGAA,-0.0287
2,AGATTGGC,-0.169
3,AGTCTAAG,-0.00597
4,ACTTCGGA,-0.000585
5,ACTGCGAC,-0.0806
6,TACGATCA,-0.198
7,AGGACCAA,-0.0709
8,ACGCGTAG,0.0528
9,GGCTAACC,0.0192
10,GAATTAGA,-0.17
11,ATAAAACA,0.0261
12,CTTCTTAA,-0.133
13,AACTTACT,-0.105
14,ATGCGAGA,-0.127
15,GAATCCAC,-0.02
16,GCGTTTCA,-0.099
17,CCCTGGGA,0.0429
18,ATACTCGC,0.0254
19,CAATTCGG,-0.0704
20,CTACAAAC,-0.0143
21,AACGTTTG,-0.0579
22,TCCAACAA,0.0435
23,CGATAATC,-0.158
24,TAACTCTA,-0.0647
25,ACTGCATA,0.214

row,Sequence,binding signal [E-score]
1,CCCCTTTC,-0.015
2,CTAGACGC,0.0629
3,AAAACGTT,-0.391
4,AAAAGTCC,0.0626
5,TCTCTACA,0.045
6,GGATTGTA,-0.246
7,GGATTACA,0.134
8,AAGGACAC,0.405
9,TTACGGAA,0.00473
10,CTACTACA,0.134
11,CGCTGCCC,0.141
12,ATGCGCGC,-0.0386
13,AATTGGGT,0.0537
14,GGATCAGA,0.17
15,GCATATCC,-0.119
16,TACACATA,0.209
17,ACCCGGAT,0.301
18,CTCGAGCC,0.1
19,GAGATAAA,0.00967
20,CGATGGAC,-0.12
21,AAGAGAAC,0.0147
22,AACGTCAT,-0.22
23,ACGAGCCA,0.0039
24,TACCAGAA,0.0104
25,GCCCAACA,0.313

row,Sequence,binding signal [E-score]
1,ACTACTTC,0.0147
2,AATCTATC,-0.231
3,AGGGATGA,-0.123
4,TACCTAGA,0.0914
5,ATCGCCCA,-0.164
6,ATATCTTA,-0.0635
7,AGATCATG,-0.134
8,AAGATCCG,-0.101
9,GGGAGATA,-0.143
10,AGGATTGC,-0.287
11,CAAATTGC,-0.135
12,CAGACTGC,-0.0122
13,ATGCACGG,0.00124
14,AGTTACTG,0.00404
15,GCGGCGGA,-0.0347
16,CAGCCCCC,0.0983
17,CGATGCCA,-0.101
18,ATGGGCGA,0.00918
19,ACCTACAT,0.149
20,GGTTCGAA,0.0204
21,CCAGCGGA,0.098
22,TATGGCCA,-0.173
23,AAGACTCT,-0.162
24,CATCTGCG,-0.0636
25,CACTCGTA,0.152

row,Sequence,binding signal [E-score]
1,CGCCTTCA,-0.23
2,CACGCGGA,0.0966
3,TTGAGAAA,-0.0957
4,ATTAGGCG,-0.0394
5,CCATGGAG,0.0738
6,ACTAGCCA,-0.12
7,CTACAGTC,-0.265
8,ATTAAACC,-0.00846
9,CAGCTGGC,0.0504
10,CCCAATCC,-0.017
11,CACCCAAC,0.301
12,ACCCAAGC,0.00756
13,CACAACGA,0.0164
14,AGACAGTC,-0.267
15,GCGCTCAC,-0.177
16,ACGTGAAT,-0.11
17,CCTTTGTA,-0.0502
18,CCAGTGAA,-0.0935
19,ACGGACCT,0.122
20,AGTTAACT,-0.0287
21,ATTTAGCA,-0.0726
22,ACCCACCG,0.0894
23,ACAAGAGG,-0.0574
24,ACTACCCC,0.267
25,ACGAAAAT,0.0009

row,Sequence,binding signal [E-score]
1,GACCTGTA,-0.0689
2,CTCATCCC,-0.0997
3,ACCCGGCA,0.0366
4,TATCAGCA,0.00276
5,ATACCACC,0.25
6,CAGGGAAC,-0.0266
7,TGACCGAA,-0.251
8,ATCACGAA,-0.0575
9,CCCCTCAG,0.251
10,ATTAAAAT,-0.116
11,AGTCTCAG,-0.17
12,TAGCGCCA,-0.377
13,TCCGACAA,-0.111
14,ATCCGTTC,-0.0673
15,CGTTACGA,-0.196
16,GGTATAAC,0.198
17,ATAGGCTG,-0.142
18,ATAAAGTC,-0.175
19,CTACTAGC,-0.0989
20,CCGTGACG,0.0163
21,GCATCACC,-0.119
22,GACTGGGC,-0.0516
